Measured values taken from PubChem BioAssay AID1347165 (National Center for Advancing Translational Sciences (NCATS), 2019).
Values joined by “and” are separate entries in the source; they are usually repeats but may differ in a detail not shown here. Equal entries are not always repeated. Among all 220,000 compounds or so, about 5,700 (2.6%) were called active. The shares of active, inactive and inconclusive entries below differ from those in the screen. Calls come from the whole dose curve; as a rule, active = well fitted inhibition curve with a large enough effect; inconclusive = small, poorly fitted or top-dose-only effect; inactive = no such curve, though single readings can be large or run the other way. Potencies beside an inconclusive call are fits to weak or partial responses and may not hold up.

The compounds below were run against Lysine-specific demethylase 5B (Homo sapiens) (UniProt Q9UGL1) (assay: Primary screen for KDM5B Histone Demethylases FDH-coupled qHTS). Conditions: FDH-coupled NADH fluorescence (FDH is formaldehyde dehydrogenase); series mostly up to 57.7 µM.
UniProt Q9UGL1, sequence (Q9UGL1 whole entry, looked up): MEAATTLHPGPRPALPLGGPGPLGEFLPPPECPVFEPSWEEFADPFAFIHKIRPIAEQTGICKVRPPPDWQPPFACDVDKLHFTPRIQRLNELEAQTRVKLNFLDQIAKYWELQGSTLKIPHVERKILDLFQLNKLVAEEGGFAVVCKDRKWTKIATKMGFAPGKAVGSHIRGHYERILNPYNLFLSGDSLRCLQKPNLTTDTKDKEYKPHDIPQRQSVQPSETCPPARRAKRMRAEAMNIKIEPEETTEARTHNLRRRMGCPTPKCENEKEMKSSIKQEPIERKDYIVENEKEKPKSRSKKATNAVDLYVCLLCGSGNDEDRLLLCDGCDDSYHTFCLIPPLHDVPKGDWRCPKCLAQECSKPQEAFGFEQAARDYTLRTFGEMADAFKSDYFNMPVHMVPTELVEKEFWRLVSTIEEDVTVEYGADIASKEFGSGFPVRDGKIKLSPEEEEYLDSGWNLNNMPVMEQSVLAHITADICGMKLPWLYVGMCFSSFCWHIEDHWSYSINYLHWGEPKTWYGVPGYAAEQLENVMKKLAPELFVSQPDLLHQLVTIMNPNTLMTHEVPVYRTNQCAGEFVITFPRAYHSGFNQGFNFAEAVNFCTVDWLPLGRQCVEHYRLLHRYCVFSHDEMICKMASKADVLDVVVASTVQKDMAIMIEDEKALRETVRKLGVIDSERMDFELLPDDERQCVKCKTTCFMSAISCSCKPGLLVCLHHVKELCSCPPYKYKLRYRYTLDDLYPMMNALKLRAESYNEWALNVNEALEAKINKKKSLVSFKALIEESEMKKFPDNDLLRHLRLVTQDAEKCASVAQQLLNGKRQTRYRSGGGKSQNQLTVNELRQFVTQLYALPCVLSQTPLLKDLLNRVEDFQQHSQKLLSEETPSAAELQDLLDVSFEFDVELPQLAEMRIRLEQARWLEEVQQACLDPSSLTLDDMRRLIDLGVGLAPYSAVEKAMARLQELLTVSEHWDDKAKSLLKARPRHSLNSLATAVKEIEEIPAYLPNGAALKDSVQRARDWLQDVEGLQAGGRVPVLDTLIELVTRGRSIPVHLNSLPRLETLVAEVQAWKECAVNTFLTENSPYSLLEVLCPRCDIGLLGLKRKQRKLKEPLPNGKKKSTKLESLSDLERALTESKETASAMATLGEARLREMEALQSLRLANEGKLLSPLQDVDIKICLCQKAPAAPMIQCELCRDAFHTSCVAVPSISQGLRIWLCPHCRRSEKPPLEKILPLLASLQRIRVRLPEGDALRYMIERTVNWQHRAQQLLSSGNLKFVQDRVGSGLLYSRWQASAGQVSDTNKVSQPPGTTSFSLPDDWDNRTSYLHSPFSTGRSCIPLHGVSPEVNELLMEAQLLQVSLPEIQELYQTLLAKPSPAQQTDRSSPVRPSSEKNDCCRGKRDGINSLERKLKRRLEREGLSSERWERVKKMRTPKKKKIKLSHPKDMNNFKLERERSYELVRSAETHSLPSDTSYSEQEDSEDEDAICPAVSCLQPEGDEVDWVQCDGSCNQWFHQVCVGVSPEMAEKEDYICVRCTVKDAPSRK
Procedure, shortened: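 Compound dilutions met 200 nM (final) KDM5BΔAP for 10 min at room temperature before substrate addition. The substrate mix held 12.5 µM H3K4me3 with cofactors 25 µM α-ketoglutarate and 50 µM Fe²⁺. NADH signal gain over 30 min defined activity.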
Note: nearly all actives have a fitted effect of over 70% in size.
Potency is the fitted concentration of half-maximal effect; tags give direction and shape of the fitted curve.

Structure (SMILES) | Potency
CC(C)CN1C(=O)c2cccn2CC1CNC(=O)c1ccc(F)cc1 (centres undefined) | inactive
O=C(Nc1ccccc1)C1CCN(S(=O)(=O)c2ccc3[nH]c4c(c3c2)CCCCC4)CC1 | inconclusive: 22.4 µM [inhibitor, partial curve, poor fit]
O=C(NCc1ccc2c(c1)OCO2)c1ccc(-c2ccc(N3CCSCC3)nc2)cc1 | active: 28.2 µM
COc1ccccc1C(CNC(=O)c1ccc(NS(=O)(=O)c2ccc(F)c(C)c2)cc1)N(C)C (centres undefined) | inconclusive: 25.1 µM [inhibitor, partial curve, poor fit]
COc1ccccc1CNC(=O)c1cnc(N2CCCC2)nc1C | inconclusive: 28.2 µM [inhibitor, partial curve, poor fit]
Cc1cc(/C=C/C(=O)c2cccs2)cc(C)c1O | inconclusive: 39.8 µM [inhibitor, single point]
NC(=O)CCNC(=O)C1=C[C@@H](NC(=O)Nc2cccc(F)c2)[C@@H](O)[C@H](O)C1 | inconclusive: 25.1 µM [inhibitor, single point]
CC(C)CC(=O)N1CCN(CC2CC=CCC2)CC1 (centres undefined) | inconclusive: 20 µM [inhibitor, single point]
CN1CCCN(S(=O)(=O)c2cccc(Br)c2)c2ccccc21 | active: 14.1 µM
COc1cccc(NC(=O)CCCN(c2ccc(Cl)cc2)S(C)(=O)=O)c1 | inconclusive: 39.8 µM [inhibitor, single point]
Cn1ccc(C(=O)N[C@@H]2COCC[C@@H]2OCc2cscn2)cc1=O | active: 28.2 µM
COCCn1c(C)cc(/C=C2/NC(=O)N(Cc3ccc(C)cc3)C2=O)c1C | inconclusive: 39.8 µM [inhibitor, single point]
O=[N+]([O-])c1ccc(S(=O)(=O)NNC(=S)NCCc2ccccc2)cc1 | inconclusive: 31.6 µM [inhibitor, single point]
CCC(=O)N1Cc2ccccc2CC2(CCN(Cc3ccncc3)CC2)C1 | inconclusive: 56.2 µM [inhibitor, partial curve, poor fit]
O=C(c1ccc(Cl)cc1)N1CC2(CCCN(C3CCCCC3)C2)Cc2ccccc21 (centres undefined) | inconclusive: 50.1 µM [inhibitor, partial curve, poor fit]
Cc1ccc(C(C)C)c(OCCSc2nc3ccccc3n2CC(=O)O)c1 | inactive
Cn1ccc(C(=O)N[C@@H]2CN(c3ncccn3)C[C@H]2CO)n1 | inconclusive: 20 µM [inhibitor, single point]
Cc1cc(C)c(NC(=O)COc2ccc3c(C)cc(=O)oc3c2)c(C)c1 | inconclusive: 31.6 µM [inhibitor, partial curve, poor fit] and inconclusive: 28.2 µM [inhibitor, partial curve, poor fit]
Cc1ccccc1-c1nc(S(=O)(=O)c2ccccc2)c(NCCN2CCOCC2)o1 | inactive
CN1CCOc2c(C(=O)NCCc3cnc[nH]3)cc(-c3ccccc3)cc21 | active: 31.6 µM
COc1cc(/C=N/NC(=O)c2cc(-c3ccccc3)sc2N)cc(OC)c1OC | inconclusive: 15.8 µM [inhibitor, partial curve, poor fit]
CCN1CCCC1CNC(=O)C1CCCC1 (centres undefined) | inactive

Structure (SMILES) | Potency
Cc1ncsc1CN1CCn2c(nnc2[C@@H]2C[C@@H](O)CN2Cc2cccnc2)C1 | inconclusive: 11.2 µM [inhibitor, partial curve, poor fit]
COc1cc(CCC(=O)N2CCc3nn(Cc4ccccc4)c(=O)n3CC2)on1 | inactive
COC(=O)CNC(=O)c1nc(-c2ccc(Cl)cc2Cl)c2cnccn12 | active: 79.4 µM
CCN(CCCNC(=O)c1cc(Nc2ccccc2OC)nc2ccccc12)c1cccc(C)c1 | inconclusive: 35.5 µM [inhibitor, partial curve, poor fit]
CCC(CC)C(=O)N1CC[C@@H](CC(=O)O)[C@@H](CC2=NCCc3ccc(C)cc32)C1 | inconclusive: 31.6 µM [inhibitor, partial curve, poor fit]
CCN1CCN(C(=O)CCC[C@@H]2[C@H]3CCCN4CCC[C@@H](CN2Cc2ccccc2)[C@@H]34)CC1 | inconclusive: 25.1 µM [inhibitor, single point]
O=c1[nH]c(C2CCCN(Cc3ccc(-c4cc(F)cc(F)c4)cc3)C2)nc2ccc(F)cc12 (centres undefined) | inconclusive: 31.6 µM [inhibitor, single point]
Cc1nn2c(c1-c1ccccc1C(C)C)N(Cc1cccc(C(=O)O)c1)CCC2 | inconclusive: 28.2 µM [inhibitor, partial curve]
COc1ccc(C(=O)N[C@H]2CO[C@H]3[C@@H]2OC[C@@H]3n2nnnc2-c2ccc3c(c2)OCO3)cc1 | inactive
C/C(=N/Nc1ccc(S(N)(=O)=O)cc1[N+](=O)[O-])c1ccccc1Cl | inactive
Cc1ccc(NC(=O)CC2C(=O)Nc3nc(-c4ccccc4)nn32)cc1C (centres undefined) | inactive
COc1ccc(-c2cn3nc(SCC(=O)Nc4ccc(C)c(Cl)c4)ccc3n2)cc1 | inconclusive: 6.31 µM [inhibitor, full curve, poor fit]
CCNC(=O)c1ccc(CNC(=O)OC(C)(C)C)cc1 | inactive
O=C1c2c(nc(COc3ccc4c(c3)OCO4)n2Cc2ccccc2)NCCN1Cc1cccc(Cl)c1 | inconclusive: 25.1 µM [inhibitor, single point]
COC(=O)c1ccc(NC(=O)CN2C(=O)c3cccc4cccc2c34)cc1 | inconclusive: 17.8 µM [inhibitor, partial curve, poor fit]
COc1ccc(-c2nc(C#N)c(NCc3ccc4c(c3)OCO4)o2)cc1 | inconclusive: 25.1 µM [inhibitor, partial curve, poor fit]
CN(CC(=O)N1CCc2c(c(-c3nncn3-c3ccccc3)nn2C)C1)S(=O)(=O)c1cnc[nH]1 | inconclusive: 31.6 µM [inhibitor, partial curve, poor fit]
Cc1ccc(C(=O)NCc2coc(-c3cccs3)n2)cc1 | inconclusive: 39.8 µM [inhibitor, single point]
COCc1cc(=O)n2[nH]c(-c3cccs3)cc2n1 | inconclusive: 28.2 µM [inhibitor, partial curve, poor fit]
COc1ccc(S(=O)(=O)c2c(O)c3ccc(C(=O)Nc4cccc(C)c4C)cc3[nH]c2=O)cc1 | inconclusive: 39.8 µM [inhibitor, single point]
O=C1CCN(S(=O)(=O)c2ccccc2)CCCN(C(=O)c2cccc3[nH]ccc23)CCN1 | inconclusive: 20 µM [inhibitor, partial curve, poor fit]
COc1ccc(OC)c2nc(-c3cccc(Cl)c3)c(CN3CC(O)C3)cc12 | inconclusive: 10 µM [inhibitor, partial curve, poor fit]

Structure (SMILES) | Potency
Cn1cccc1-c1cc(C(=O)N2CCOCC2CC(=O)Nc2ccccc2)[nH]n1 (centres undefined) | inconclusive: 25.1 µM [inhibitor, single point]
O=C(Nc1ccc(Cl)c(Cl)c1)C(=O)c1c[nH]c2ccccc12 | inactive
COC(=O)[C@H](Cc1ccc(OC)cc1)NC(=O)[C@H]1CN(C(=O)c2ccc(N(C)C)cc2)CCN1S(=O)(=O)c1ccccc1 | inconclusive: 35.5 µM [inhibitor, partial curve, poor fit]
Cc1ccc2[nH]c(=O)c(COC(=O)c3ccccn3)cc2c1 | inactive
O=C(Cc1c(F)cccc1Cl)N1CCCN(c2cc(-c3ccccc3)[nH]n2)CC1 | inconclusive: 15.8 µM [inhibitor, single point]
Cc1ccc(Nc2nnc(SC(C)C#N)s2)cc1 (centres undefined) | inactive
O=C(COc1ccccc1[N+](=O)[O-])Nc1ccc(-c2nc3ccccc3s2)cc1 | inconclusive: 28.2 µM [inhibitor, partial curve, poor fit]
COc1ccc(CCNC(=O)c2ccc3c(c2)N(Cc2ccc(F)cc2)CCS3)cc1OC | inconclusive: 17.8 µM [inhibitor, partial curve, poor fit]
CN(C)C[C@@H]1CN(c2ncccn2)C[C@H]1NC(=O)c1ccnn1C | active: 28.2 µM
Cc1ccc(C)c(C(=O)CCC(=O)NC23CC4CC(CC(C4)C2)C3)c1 | inactive
O=[S+]([O-])(c1ccccc1)N1CC2(CCCN2Cc2cccnc2)Cc2ccccc21 (centres undefined) | inconclusive: 56.2 µM [inhibitor, partial curve, poor fit]
N#Cc1cccc(NC(=O)c2cc3c(s2)-c2ccc(Cl)cc2SC3)c1 | inconclusive: 1.41 µM [inhibitor, partial curve, poor fit]
O=C(CSc1nc2ccccc2o1)NC(=O)NC1CCCC1 | inactive
O=C(c1cccc(Cl)c1)N1Cc2ccccc2CC2(CCCN2Cc2ccncc2)C1 (centres undefined) | active: 50.1 µM
O=C(Nc1ccc2oc(=O)ccc2c1)c1ccc(Cl)c(Cl)c1 | inactive
Cc1ccn2c(=O)c(C(=O)NC(C)c3ccccc3)c(O)nc2c1 (centres undefined) | inconclusive: 3.98 µM [inhibitor, partial curve, poor fit]
Cc1ccc2[nH]cc(CCNC3CC(=O)N(c4ccc(F)cc4)C3=O)c2c1 (centres undefined) | inactive
CCOc1ccccc1CNC(=O)c1cccn1-c1nnc(N2CCCCC2)s1 | inconclusive: 22.4 µM [inhibitor, single point]
NC(=O)c1ccc(NC(=O)c2cc3n(n2)CC(c2ccc(Br)cc2)OC3)cc1 (centres undefined) | active: 25.1 µM
O=C(Cn1c(=O)c2cccn2c2ccc(F)cc21)N1CCN(c2ccc(F)cc2)CC1 | inconclusive: 1.41 µM [inhibitor, full curve, poor fit]
